The values that follow come from the supplement of paper PMC11417369.

± gives the standard deviation of the averaged measurements. This is one part of the list.

The test system of this test is PfAP2-LT AP2 domain (GST-tagged). Put plainly: gcPBM binding intensity (ln(normalized median fluorescence intensity)); higher = stronger DNA binding. The essentials:
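Alexa488 anti-GST antibody, scanned at 488 nm, detected GST-tagged P. falciparum DNA-binding domains that had been expressed in E. coli and incubated for 1 h on an Agilent 4 × 180k array. The array carried primer-extended double-stranded 36-bp intergenic genomic probes and negative controls. Binding intensity is the highest Masliner-normalised natural-log median intensity across replicate spots of either orientation of each probe.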
On to “TTTATTTAAGAAAAATGTACAGGTTCATTTCATAAT [XGTACX_site27]”, for which the “gcPBM binding intensity (ln)” value was found to be 8.41 ± 0.43. On to “TTAAAAAAAAAACACACACACATACCCATATATATA [CACACA_site5768]”, for which the “gcPBM binding intensity (ln)” value stood at 9.825 ± 0.021.

Turning to “TATAAAAATATATATATATATATATATATAATATGT [TGCATGCA_negctrl_site85]”, the “gcPBM binding intensity (ln)” value is 9.06 ± 0.2.

Regarding “ATTTGTTCCTTGGGAGTTTACTTTTTTTTAATTTTA [CACACA_negctrl_site638]”, the “gcPBM binding intensity (ln)” value is 8.76 ± 0.47.

On to “TTCTTTTTAATTAATACACACACACCCATATATATA [CACACA_site8719]”, for which the “gcPBM binding intensity (ln)” value stood at 9.47 ± 0.27.

On to “AAAAAAAAAAAACACACACACACACTAGTATATAAA [CACACA_site4783]”, for which the “gcPBM binding intensity (ln)” value was 10.1 ± 0.2. The value for “AATACTTATTATGAAACACACACCAAAACTACATAA [CACACA_site270]” was 9.46 ± 0.19; that for “AAGAAAAAAAAAAATATATATACATATATATATATA [TGCATGCA_negctrl_site485]” was 9.38 ± 0.47; that for “AATACATATAATACAACACACAAGTAATATAAACCT [CACACA_site3597]” was 9.34 ± 0.29. On to “GGATATAACAAACACACACACACATATATATATATT [CACACA_site4141]”, for which the “gcPBM binding intensity (ln)” value amounted to 9.97 ± 0.16. Turning to “TTTAAATGAAAAAAAGGTACACAATATTATTCTTAT [XGTACX_site8612]”, the “gcPBM binding intensity (ln)” value was 8.55 ± 0.45.

On to “AATAAATAAATACATCTCAGTATATAAACAAACAAA [CACACA_negctrl_site1604]”, for which the “gcPBM binding intensity (ln)” value came out at 8.89 ± 0.51. The same measure for “ATGAAACATGTATATTGTACTCTGGATCAATTTAAT [XGTACX_site6413]”: 8.85 ± 0.37; for “AAGCCTTAAAAGGAAAGTACGTATATATATATATAT [XGTACX_site8559]”: 9.91 ± 0.53. As to “ATATTTAATTAAAAGAGTACTTAAATAAAATAAATG [XGTACX_site2149]”, the “gcPBM binding intensity (ln)” value was found to be 8.48 ± 0.45.

Take “AAATTTATTATATATACATGCAATCATAAATAATGT [TGCATGCA_site539]”: the “gcPBM binding intensity (ln)” value is 8.56 ± 0.42.

With “AAGAAAATAGAAAATACACACAGCAAACAGAGGAAT [CACACA_site3785]”, the “gcPBM binding intensity (ln)” value was found to be 9.6 ± 0.29. Turning to “AATGTATATATATATATATATATATATATTTATTTA [CACACA_negctrl_site113]”, the “gcPBM binding intensity (ln)” value came to 9.09 ± 0.46.

As for “ATATATATATATTTATGTACATATATTTTTTTTTTT [XGTACX_site8558]”, the “gcPBM binding intensity (ln)” value was determined as 9.01 ± 0.38.

Consider “AATAATAAATCAAACTGTACATATATTTTCAATCTA [XGTACX_site3344]”, for which the “gcPBM binding intensity (ln)” value came out at 8.6 ± 0.52. With “TGTAGTCTGGAGAAAAGTACACAGTATCCGGTAACT [XGTACX_site4934]”, the “gcPBM binding intensity (ln)” value is 8.86 ± 0.38. The value for “TTTTTTTTTTTGTTCACACATATATATATATATATA [CACACA_site5376]” was 9.22 ± 0.23; that for “TTATAAATAAAAAATACACACATATATTTATTTATA [CACACA_site6242]” was 8.56 ± 0.5. The value for “ATAATATATGAAAGTGGTACACAAAGGAAAATAAAA [XGTACX_site333]” was 9.04 ± 0.54; that for “ATCCTAATATTGAACTGTACCTTATATGTTATTATA [XGTACX_site1014]” was 8.87 ± 0.45. The value for “GGTTATATATTTTTTGCACACCAAAAAAGAGAATAT [CACACA_site2731]” was 8.95 ± 0.42; that for “ACGTGTATTTATTTAGTGCACTTTATATTTTTTCTT [GTGCAC_site9426]” was 9.18 ± 0.48.

Regarding “TATATATATATATATACACACATATATACATATATA [CACACA_site4043]”, the “gcPBM binding intensity (ln)” value amounted to 9.59 ± 0.26. For “TATACATACACATACACACATACACCCATACACATA [CACACA_site1746]”, the “gcPBM binding intensity (ln)” value is 9.69 ± 0.33.

Regarding “TTTATATTAATTGATGTGCACTGAAATATTTGTCCA [GTGCAC_site9655]”, the “gcPBM binding intensity (ln)” value was 8.62 ± 0.53. The value for “ACCCTATAGGTAACTACACACCGCATATTGTTTACT [CACACA_site7436]” was 9.15 ± 0.34; that for “TTAACTATGAATACATGTACATGAAAATATTTCAAT [XGTACX_site1069]” was 8.8 ± 0.34; that for “GGCAAATTTATTATACCCACATACATACATACATAC [XGTACX_negctrl_site186]” was 9.01 ± 0.32. For “AAAATTAAACAAAGTTGTACAAAATAATAATAAAAG [XGTACX_site7515]”, the “gcPBM binding intensity (ln)” value stood at 9.06 ± 0.47. The same measure for “AAATTAATAAAAAATGGTACACAAAATGGATGTATA [XGTACX_site1561]”: 8.79 ± 0.49. As for “TATGTATATTATATGACACACATTTATATATATATA [CACACA_site1167]”, the “gcPBM binding intensity (ln)” value worked out at 8.91 ± 0.32. The value for “TTTTGTTGATTTATATCTGTAGGGTTTAATATAACA [XGTACX_negctrl_site174]” was 8.51 ± 0.33; that for “AATAAATAAATAAATATATATATATATATATATATG [CACACA_negctrl_site899]” was 9.02 ± 0.14. As to “AAAAAGGATAAACACACACACACACCGATATATATA [CACACA_site8206]”, the “gcPBM binding intensity (ln)” value was found to be 10.34 ± 0.099.

In the case of TTATTTTTGTGTAAGGTGCTATATATAATGTTTTTA, the “gcPBM binding intensity (ln)” value is 8.71 ± 0.41. Regarding “AAATGTGATATAAGTACACACACATATGTATATATA [CACACA_site8539]”, the “gcPBM binding intensity (ln)” value stood at 9.49 ± 0.33. Consider “AACGAAATCATCAAGTGTACTAGTTTATTATTAATA [XGTACX_site6161]”, for which the “gcPBM binding intensity (ln)” value stood at 8.79 ± 0.5. “ATATACACACATAAGTGTACTTATATTTCATATATA [XGTACX_site8646]”: the “gcPBM binding intensity (ln)” value came out at 8.97 ± 0.47. The same measure for “TAATTAACAAACTATAGTACACAAAATACTTCATAT [XGTACX_site6375]”: 8.79 ± 0.49; for “CCATGTCACAATTTTTCACACACAAAATTTATATAC [CACACA_site8628]”: 9.19 ± 0.39. On to “AAAATAAAATAAAACACAAAAAAATAAAACAAAATA [CACACA_negctrl_site16]”, for which the “gcPBM binding intensity (ln)” value stood at 8.87 ± 0.49. The same measure for “AAATAAAATATATACATATATATATTATTTAGTAAT [XGTACX_negctrl_site375]”: 8.62 ± 0.52; for “TCTATGCGTTTTAATAGTACATATAAAATTTATACA [XGTACX_site6986]”: 8.42 ± 0.3; for “AAATATGTTTATATATGTACTTATAATTCAAAATAT [XGTACX_site2167]”: 8.48 ± 0.4. The same measure for “TATATATCCATGTGTACACACAAAAAAAAATAAAGT [CACACA_site7107]”: 9.43 ± 0.39; for “AAAACAAATATATTAACACACAAACATATAAACAAA [CACACA_site6052]”: 9.27 ± 0.4; for “AGCTCATGCAGGTGTACACAAAAAGAAAAAAAATAA [CACACA_site4828]”: 8.93 ± 0.57.

Turning to “CCCCATATAATGAACACACACACTCCTCATAATTAA [CACACA_site628]”, the “gcPBM binding intensity (ln)” value is 10.33 ± 0.099. The same measure for “ATGTCCTCAATGTTTACACACTCTTTTATATAAGTT [CACACA_site1460]”: 9.22 ± 0.35. As for “ATAAATAATGTTGACACACACAATAATCTTATTATG [CACACA_site3593]”, the “gcPBM binding intensity (ln)” value came out at 9.34 ± 0.36. The same measure for “TGCTTATATATACGTGCACACATATATATAAGATAT [CACACA_site8516]”: 9.03 ± 0.27.
